The IC50 comes from the fitted curve, where viability falls to half of the control; a limit (>, <) means that the fit lies beyond the doses tested. For AUC the same curve is integrated over the 256-fold range of doses and scaled to a fraction; the more sensitive the line, the further below 1. An inferred top dose was derived from the fitted curves, not read from the paper.
What was measured:
Experiment in all cases: Viability of human cancer cell lines after 72 h of drug (GDSC screen)
AT-7519 = compound: O=C(NC1CCNCC1)c1n[nH]cc1NC(=O)c1c(Cl)cccc1Cl [AT-7519]; conditions: top dose 10.24 µM; top dose inferred
Experimental: (§1)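 Human cancer cell lines in 384-well plates, medium with 10% serum, drug for 72 h over a 256-fold dose range (nine 2-fold or five 4-fold steps up to the top dose). Adherent lines were fixed and stained with the nucleic acid dye Syto60, suspension lines read with resazurin; signal relative to control wells, capped at 0 and 100%. One two-parameter sigmoid per drug and line, fitted in a mixed model over all curves with the slope shared within a line.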

XMD14-99 = compound: COc1cc(N2CCN(C)CC2)ccc1Nc1nc(N)c(C(=O)c2c(Cl)cccc2Cl)s1 [XMD14-99]; conditions: top dose 10.24 µM; top dose inferred
Experimental: as §1

FH535 = compound: Cc1cc([N+](=O)[O-])ccc1NS(=O)(=O)c1cc(Cl)ccc1Cl [FH535]; conditions: top dose 32 µM; top dose inferred
Experimental: as §1

Cell Line | AUC (AT-7519) | IC50 (AT-7519) [µM] | AUC (XMD14-99) | IC50 (XMD14-99) [µM] | AUC (FH535) | IC50 (FH535) [µM]
NCI-H1688 (small cell lung carcinoma, adherent) | 0.837 | 7.89 | 0.959 | > 10.2 | 0.571 | 3.2
RO82-W-1 (thyroid, adherent) | 0.983 | > 10.2 | 0.98 | > 10.2 | 0.85 | > 32
RERF-GC-1B (stomach, adherent) | 0.714 | 2.78 | 0.965 | > 10.2 | 0.773 | 14
G-402 (soft tissue, adherent) | 0.454 | 0.459 | 0.972 | > 10.2 | 0.625 | 4.98
PANC-08-13 (pancreas, adherent) | 0.556 | 0.949 | 0.963 | > 10.2 | 0.923 | > 32
COLO-205 (large intestine, suspension) | 0.599 | 1.19 | 0.963 | > 10.2 | 0.545 | 2.65
U-118-MG (glioma, adherent) | 0.985 | > 10.2 | 0.984 | > 10.2 | 0.858 | > 32
KYSE-270 (oesophagus, adherent) | 0.614 | 1.25 | 0.978 | > 10.2 | 0.597 | 3.53
MFE-319 (endometrium, adherent) | 0.842 | 6.85 | 0.989 | > 10.2 | 0.597 | 3.66
CCF-STTG1 (glioma, adherent) | 0.988 | > 10.2 | 0.987 | > 10.2 | 0.739 | 9.68
PL4 (pancreas, adherent) | 0.852 | 8.33 | 0.987 | > 10.2 | 0.766 | 12.1
MFE-296 (endometrium, adherent) | 0.893 | > 10.2 | 0.985 | > 10.2 | 0.619 | 4.36
BICR22 (head and neck, adherent) | 0.63 | 1.55 | 0.983 | > 10.2 | 0.582 | 3.46
H3255 (lung adenocarcinoma, adherent) | 0.856 | > 10.2 | 0.982 | > 10.2 | 0.715 | 9.27
OCUM-1 (stomach, adherent) | 0.931 | > 10.2 | 0.981 | > 10.2 | 0.205 | 0.239
SK-CO-1 (large intestine, adherent) | 0.92 | > 10.2 | 0.989 | > 10.2 | 0.787 | 13
VMRC-RCZ (kidney, adherent) | 0.744 | 3.65 | 0.977 | > 10.2 | 0.701 | 8.15
ASH-3 (thyroid, adherent) | 0.777 | 4.1 | 0.985 | > 10.2 | 0.579 | 3.29

Source: the supplement of paper PMC4967469
